Here are results for 86 compounds from ChEMBL document CHEMBL4888484, “Replenishing the malaria drug discovery pipeline: Screening and hit evaluation of the MMV Hit Generation Library 1 (HGL1) against asexual blood stage Plasmodium falciparum ,using a nano luciferase reporter read-out” (2022).

Hit rate of the full screen: of about 150,000 compounds, about 540 (0.36%) showed an effect of 50% or more. The list shows a part of the results.

This experiment relates to Plasmodium falciparum. In words: Primary screen in NF54 nanoGlo assay, in single point, at 2uM, 72h; a lower Z score goes with more inhibition. Type of experiment: functional, Erythrocyte. Particulars: timepoint 72 hour.
The % Inhibition is the relative decrease from the control value, in per cent. As to `O=C(c1c[nH]c2ccccc12)N1CCC(c2nnc(C3CC3)o2)CC1`, the “% Inhibition” value was -1% and the Z score was found to be 0.08.
As to `Cc1ccoc1C(=O)NC1CCN(c2nc3ccccn3c2C#N)CC1`, the “% Inhibition” value is on record as -14% and the Z score is on record as 1.42.
For `CC1CN(Cc2nc(N(C)C)no2)CC1N1CCOCC1` (configuration not stated) the same measures were 4% and -0.53.
Consider `O=S(=O)(CCc1ccccc1)N1CCC(Oc2nncs2)CC1`, for which the “% Inhibition” value is given as -4% and the Z score was 0.84.
For `CN1C(=O)C[C@H](Nc2ccnc(C#N)n2)[C@H]1c1ccc(Cl)c(F)c1`, the “% Inhibition” value is recorded as -11% and the Z score amounted to 1.33.
Regarding `CCOc1ccc(NC(=O)Cn2c(C)nc3onc(C)c3c2=O)cc1`, the “% Inhibition” value turned out to be 4% and the Z score is given as -0.75.
On the same counts, the results for `CCN1CCN(c2ncc3c(n2)CCN(Cc2ccc(F)cc2)C3)CC1` are 0% and -0.05.
In the case of `CN(C[C@H]1COc2ccccc2O1)C(=O)CCn1cccn1`, the “% Inhibition” value is 0% and the Z score was -0.02.
Turning to `O=C(C[C@@H](c1ccsc1)n1cnnn1)Nc1cccc(O)c1`, the “% Inhibition” value is 0% and the Z score came to 0.05.
On the same counts, the results for `CC[C@@H](C(=O)Nc1nnc2nc(C)ccn12)n1cccn1` are -9% and 1.58.
Turning to `O=C(NCC1CC1)[C@]1(F)CCCN(S(=O)(=O)c2ccc(Cl)s2)C1`, the “% Inhibition” value is recorded as -19% and the Z score was found to be 1.63.
On the same counts, the results for `CCc1ncnc(N[C@H](CO)Cc2ccccc2)c1F` are -3% and 0.39.
For the compound `O=C1CCC2CC1C(=O)N2Cc1ccccc1` (configuration not stated), the “% Inhibition” value stood at 1% and the Z score was -0.17.
Take `O=S(=O)(c1ccc(OC2CCOCC2)c(F)c1)N(CC(F)F)C1CC1`: the “% Inhibition” value is given as 8% and the Z score is reported as -1.22.
In the case of `Cc1cc(F)cc2c(N3CCC(C)(C)S(=O)(=O)CC3)c(C#N)cnc12`, the “% Inhibition” value is given as -3% and the Z score amounted to 0.59.
Regarding `CCc1ccc(Cn2nc(CC(N)=O)nc2[C@H](C)O)cc1`, the “% Inhibition” value is listed as -9% and the Z score came to 1.8.
For `Cc1ccc(S(=O)(=O)NCc2nc3cccnc3n2C2CCCC2)cc1`, the “% Inhibition” value is listed as 7% and the Z score is given as -1.04.
On the same counts, the results for `COC(=O)C1CCN(C(=O)COC(c2ccccc2)c2ccccc2)CC1` are -11% and 1.56.
With `CN(C)CCN(Cc1ccc(C#N)cc1)C(=O)[C@H]1CCCN(C(=O)c2ccc(F)cc2)C1`, the “% Inhibition” value is listed as -1% and the Z score was 0.2.
As to `O=c1ccc(C(F)(F)F)cn1Cc1cc(Cl)cc2c1OCOC2`, the “% Inhibition” value is listed as -4% and the Z score is 0.51.
Regarding `Cc1nc([C@H]2CCN(Cc3ccc(Cl)s3)C2)n[nH]1`, the “% Inhibition” value is on record as -2% and the Z score was 0.23.
Consider `Cc1c(C)c2c(c(C)c1NC(=O)N1CCOC[C@@H](O)C1)NC(=O)CO2`, for which the “% Inhibition” value was -3% and the Z score was found to be 0.51.
As to `CC[C@@H](CNc1cc(NC2CC2)ncn1)C(=O)O`, the “% Inhibition” value was -7% and the Z score was found to be 1.58.
As to `Brc1cc(-c2nc(-c3cnccn3)no2)co1`, the “% Inhibition” value was -5% and the Z score is on record as 0.57.
For `C=CCOc1ccccc1CN(CC)C(=O)[C@@H](C)N` the same measures were 16% and -2.07.
For `COCCN1CCC(CN(Cc2nc3ccccc3n2C)C[C@H]2CCCO2)CC1` the same measures were 4% and -0.8.
As for `CCN(Cc1ccccc1)C(=O)[C@@H]1CCCCC(=O)N1Cc1cccc(OC)c1`, the “% Inhibition” value was determined as 0% and the Z score was found to be 0.02.
On the same counts, the results for `COCc1cccc(CC(=O)Nc2cc(C)c(C)nn2)c1` are -8% and 1.6.
In the case of `OCc1csc(N2CCC(c3nccn3Cc3ccccc3)CC2)n1`, the “% Inhibition” value is recorded as -4% and the Z score came to 0.71.
As for `CCCn1nnnc1CN1CCCC(C2(C)NC(=O)NC2=O)C1` (configuration not stated), the “% Inhibition” value is reported as -1% and the Z score turned out to be 0.12.
Consider `CCc1nc(-c2cc(NC(=O)COc3ccc(Cl)cc3C)c(C)s2)no1`, for which the “% Inhibition” value was determined as 4% and the Z score is recorded as -0.48.
On to `Cc1cnc(N)nc1N[C@H]1C[C@@H]1c1ccccc1`, for which the “% Inhibition” value is -3% and the Z score came out at 0.6.
For `CCN(CCC(=O)N1CCCCC1)C(=O)c1cnc(C)cn1`, the “% Inhibition” value was -12% and the Z score came out at 1.23.
On to `CCc1ccccc1NC(=O)C(C)(C)CC`, for which the “% Inhibition” value was -19% and the Z score is listed as 2.49.
Consider `COC(=O)C1(NC(=O)C2CC23CCOC3)CCOC1` (configuration not stated), for which the “% Inhibition” value is listed as -8% and the Z score came to 1.23.
For the compound `CCOC(=O)N1CCc2c(nc(-c3ccc(C)cc3)n(CC(=O)NCc3ccc(Cl)cc3)c2=O)C1`, the “% Inhibition” value is on record as 27% and the Z score is -3.09.
On the same counts, the results for `COc1ccc(C(=O)Nc2c(-c3cccc4ccccc34)c(=O)c3ccccc3n2C)cc1` are -5% and 0.63.
For `CCOc1ccccc1CN1CCC(=O)N(CC)C2(CCOCC2)C1` the same measures were -14% and 1.81.
Consider `COCCOC(=O)NC[C@@H]1C[C@H](F)CN1C(=O)c1scc2c1OCCO2`, for which the “% Inhibition” value is 2% and the Z score is reported as -0.27.
For `O=C(CCc1nc2ccccc2s1)N1CCN(S(=O)(=O)c2ccc(Br)cc2)CC1` the same measures were -16% and 3.08.
On to `CCNc1ncc(S(=O)(=O)NC[C@H]2CCOC2)cc1Cl`, for which the “% Inhibition” value was 12% and the Z score is reported as -1.38.
For `O=C(c1ccc(Cl)cc1Cl)N1C2CCC1COC2`, the “% Inhibition” value is -12% and the Z score came out at 1.4.
On to `Cc1noc2ncnc(NC3CCCC3)c12`, for which the “% Inhibition” value was -4% and the Z score worked out at 0.62.
For `O=C(Cc1ccc(Cl)cc1)N1CC2(C[C@H](N3CCCC3)CO2)C1`, the “% Inhibition” value was -3% and the Z score is 0.69.
In the case of `CC(C)Oc1ccccc1CNC[C@H]1CCCN(C)C1`, the “% Inhibition” value amounted to 3% and the Z score was -0.43.
As to `CCCc1nc(NCCc2nnc(N)s2)c2cnn(C)c2n1`, the “% Inhibition” value is listed as -2% and the Z score was determined as 0.31.
Turning to `COc1ccc(F)cc1-c1ncnc2[nH]cnc12`, the “% Inhibition” value was found to be 3% and the Z score was -0.48.
As for `CCN(Cc1ccccn1)Cc1nnc(C)n1C`, the “% Inhibition” value is on record as -7% and the Z score stood at 0.79.
For `CCOC(=O)c1c(C)n(CCc2c[nH]c3ccccc23)c(C)cc1=O` the same measures were -11% and 1.43.
As for `COc1cc(OC)c(C(=O)N2CC[C@H](CO)[C@@H](O)C2)cc1OC`, the “% Inhibition” value is -14% and the Z score turned out to be 1.82.
Regarding `CC(C)[C@H](CCC(=O)NC1CCCCC1)C(=O)O`, the “% Inhibition” value was -6% and the Z score stood at 0.71.
With `Cc1ccc(S(=O)(=O)Nc2cccn3nc(C4CCC4)nc23)cc1C`, the “% Inhibition” value was -13% and the Z score worked out at 1.46.
For `Cc1noc(C)c1CC(=O)N1CCC[C@H]1c1ncc(C)n1Cc1ccncc1` the same measures were 7% and -0.97.
As for `CCCN(Cc1nnc(-c2cccs2)o1)Cc1nc2cc(S(=O)(=O)N(C)C)ccc2n1CC`, the “% Inhibition” value turned out to be 1% and the Z score was -0.2.
On to `O=C(Cc1ccsc1)N[C@@H](CN1C(=O)COC1=O)c1ccccc1`, for which the “% Inhibition” value is reported as -10% and the Z score turned out to be 1.52.
For `Cc1nc(N(C)Cc2ccncc2C)c2sccc2n1`, the “% Inhibition” value is listed as -3% and the Z score came to 0.56.
On to `O=C(CN1C(c2ccc(Cl)cc2)=C[C@@H](c2ccccc2)n2nnnc21)NC1CCCCC1`, for which the “% Inhibition” value is listed as -21% and the Z score worked out at 2.12.
Regarding `COc1ccc2cc1OCC(=O)N[C@@H](C)C(=O)N(C)CCCCN(C(=O)Cc1ccc(F)cc1Cl)CCCNC(=O)CC2`, the “% Inhibition” value was 1% and the Z score was -0.2.
For `COCCc1noc(-c2ccc(C)cc2C)n1` the same measures were -13% and 1.64.
For `Cc1nc(-c2ccc(-c3noc(C4CCC4)n3)cc2)cs1` the same measures were -18% and 1.78.
As for `CCC1CN(C(C)c2nc(C)cc(O)n2)CCN1CC(F)F` (configuration not stated), the “% Inhibition” value is given as -2% and the Z score is 0.15.
For `COc1ccc(C(=O)N2CCN(c3ncnc4onc(C)c34)CC2)cc1` the same measures were -10% and 1.87.
On the same counts, the results for `c1ccc2nc(NCc3cn4ccsc4n3)cnc2c1` are -17% and 2.83.
For `Cc1ccc(C(CNC2CCCC2(C)C)N2CCCC2)o1` (configuration not stated) the same measures were 5% and -0.66.
In the case of `O=C(c1cccc(NS(=O)(=O)c2c[nH]c(C(=O)N3CCCC3)c2)c1)N1CCC[C@H](O)C1`, the “% Inhibition” value is listed as 7% and the Z score is listed as -1.08.
Take `Cc1cc(NC(=O)Cc2ccsc2)no1`: the “% Inhibition” value is -3% and the Z score is 0.51.
Take `CCC[C@]1(CO)CCCN(C(=O)c2n[nH]c3c2CCCC3)C1`: the “% Inhibition” value was 10% and the Z score is on record as -1.3.
For `Cc1c(NC(=O)N[C@@H](Cc2ccccc2)c2ncco2)nnn1C` the same measures were -4% and 0.44.
As for `Clc1cccc(C2(c3nc(C4CCCC4)no3)CCOCC2)c1`, the “% Inhibition” value was -17% and the Z score is 2.13.
For `COc1cc(C(=O)NCc2c(C)cc(C)[nH]c2=O)ccn1`, the “% Inhibition” value was -10% and the Z score is 1.34.
With `COc1ccccc1/C=C/CN1CCC[C@H](CCC(=O)N2CCN(c3ccccn3)CC2)C1`, the “% Inhibition” value is 1% and the Z score is reported as -0.13.
On the same counts, the results for `Cc1noc(C)c1CCC(=O)Nc1cc(S(=O)(=O)N2CCOCC2)ccc1N1CCOCC1` are -17% and 1.75.
As for `COc1ncccc1C(=O)NC[C@H](C)N1CCCC1`, the “% Inhibition” value was 3% and the Z score is on record as -0.42.
Consider `N#Cc1cccc(NC(=O)COc2ccc(C(=O)c3ccc(Cl)cc3)cc2)c1`, for which the “% Inhibition” value is -23% and the Z score stood at 3.1.
For the compound `C[C@H]1COCCN1C(=O)c1cc2ccccc2n1C`, the “% Inhibition” value was -12% and the Z score is 1.21.
As to `O=C([C@@H]1CCCN1C(=O)Nc1ccccc1)N1CCc2ccccc2C1`, the “% Inhibition” value is reported as -5% and the Z score came to 0.41.
On the same counts, the results for `CN1CCN(CCN2C(=O)c3ccc(-c4ccco4)n3C[C@@]2(C)C(=O)NC2CCCCCC2)CC1` are -17% and 1.69.
Consider `Cc1cc(NC(=O)c2ccc(C(=O)N3CCOCC3)cc2)nc(C)n1`, for which the “% Inhibition” value was determined as 9% and the Z score is on record as -1.69.
For `CCC(NC(=O)C1CCCN1C(=O)c1ccco1)c1cnn(CC)c1` (configuration not stated) the same measures were -6% and 0.9.
As to `CCCN(CC(=O)NC)C(=O)c1ccc(C)c(Br)c1`, the “% Inhibition” value turned out to be 1% and the Z score is -0.13.
For `Cc1cc(O)cc(NS(=O)(=O)c2cnn3c2OCC(C)(C)C3)c1`, the “% Inhibition” value is -10% and the Z score is 0.98.
For the compound `COc1ccc2c(c1)N1CCN(c3ccccc3Cl)CC1C(C(=O)N1CCN(C(C)=O)CC1)C2` (configuration not stated), the “% Inhibition” value is listed as -5% and the Z score was 0.56.
With `Cc1c(C(=O)N2CCNCC2)cccc1N1CCNC1=O`, the “% Inhibition” value worked out at 10% and the Z score is reported as -1.23.
Regarding `O=C(C[C@H]1C(=O)NCCN1CC1CCCCC1)NCc1ncc[nH]1`, the “% Inhibition” value is -2% and the Z score was determined as 0.21.
Turning to `CCN(CC)C(=O)CCNC(=O)c1snnc1C`, the “% Inhibition” value is given as -7% and the Z score stood at 0.79.
As to `O=C(c1nnc(Cc2c(F)cccc2Cl)o1)N1CCCC1`, the “% Inhibition” value is given as -6% and the Z score is on record as 1.
